Measurements as given in PubChem BioAssay AID485297 (National Center for Advancing Translational Sciences (NCATS), 2010).
Out of some 320,000 compounds screened, about 9,100 (2.8%) were called active. Inconclusive means that the source gave no clear call. Such entries were picked first, then a sample of the others. Calls follow the shape of the dose curve; as a rule, active = well fitted activation curve with a large enough effect; inconclusive = small, poorly fitted or top-dose-only effect; inactive = no such curve, though single readings can be large or run the other way. Potencies of inconclusive entries are left out as doubtful fits.

assay: qHTS Assay for Rab9 Promoter Activators; conditions: Huh7 Rab9 promoter-luciferase reporter, luminescence, 24 h; series mostly up to 9.22 µM; also: nearly all actives have a fitted effect of over 60% in size
Method in brief: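 Measured in stably transfected Huh7 cells bearing a Rab9 promoter–luciferase construct: 24 h compound treatment at 37 °C, followed by luminescence detection.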
Potency is read from the fitted curve at half-maximal effect; tags tell the direction and shape of the fitted curve.

| Structure (SMILES) | Potency |
| --- | --- |
| Cn1c2ccccc2c(=O)c2cc(C#Cc3ccsc3)ccc21 | active: 2.82 µM |
| COc1ccccc1NC(=O)c1coc(=O)c(Br)c1 | inconclusive [activator, partial curve, poor fit] |
| CCCCNC(=O)Nc1ccc(C2SCCS2)cc1 | inconclusive [activator, single point] |
| CCN(CC)S(=O)(=O)c1cc(NC(=O)NCCCl)ccc1C | inactive |
| N#Cc1nc(-c2cccc3ccccc23)oc1NCC1CCCO1 (stereo not drawn) | inactive |
| COc1cccc(CNC(=O)COc2cccc(-n3cnnn3)c2)c1 | inconclusive [activator, single point] |
| COc1ccccc1C(=O)COC(=O)c1ccc(N(C)C)cc1 | active: 3.55 µM |
| Cc1cc(N2CCN(C)CC2)nc2ccc(NC(=O)c3ccc4c(c3)OCO4)cc12 | inconclusive [activator, partial curve] |
| O=C(Nc1ccc(N2CCCC2)c(Cl)c1)c1ccc([N+](=O)[O-])o1 | inconclusive [activator, partial curve] |
| COc1cc(/C=C/c2ccc3cccc(O)c3n2)cc(Br)c1OC | active: 3.98 µM |
| Oc1c(C=Nc2ccc(Cl)cn2)sc2ccccc12 | inconclusive [activator, single point] |
| CCOc1ccc(-c2nc(CSc3nnc(N)s3)cs2)cc1 | inconclusive [activator, single point] |
| CCc1ccc(C(=O)Nc2cc(C)on2)o1 | inconclusive [activator, single point] |
| COC(=O)c1ccc(COC(=O)CCC(=O)c2cccs2)cc1 | inconclusive [activator, partial curve, poor fit] |
| COc1ccc(C(=O)Nc2cc(OC)cc(OC)c2)cc1 | active: 1.78 µM |
| C=CCSc1nnc(-c2sc(-c3ccccc3)nc2C)n1C | inconclusive [activator, single point] |
| CCN(C(=O)COC(=O)CCC1CCCC1)c1c(N)n(Cc2ccccc2)c(=O)[nH]c1=O | inactive |
| COc1ccc(CN=C2NN=C(c3cccc(OC)c3)CS2)cc1 | inconclusive [activator, partial curve] |
| CC(C)(C)C(=O)Nc1nnc(SCC(=O)NC2CCCCC2)s1 | inactive |
| CCOc1ncccc1C(=O)OCC(=O)Nc1nnc(-c2ccccc2)o1 | inactive |
| CCOc1ccc(/C=C/C(=O)c2ccccc2)cc1 | active: 0.794 µM |
| Cc1cc(C(=O)COC(=O)c2ccc(O)cc2O)c(C)n1-c1ccccc1 | inconclusive [activator, single point] |
| CN(C)C(=O)c1cc(C(=O)c2ccc(C(F)(F)F)cc2)c[nH]1 | inconclusive [activator, partial curve] |
| CC(C)C1Nc2ccc(C(=O)NCCCN3CCOCC3)cc2NC1=O (stereo not drawn) | inconclusive [activator, single point] |
| CC1CCN(C(=O)c2cc3ccccc3o2)CC1 | inconclusive [activator, partial curve] |
| O=C(CSc1n[nH]c(=O)[nH]c1=O)NC1CC1 | inactive |

| Structure (SMILES) | Potency |
| --- | --- |
| Cc1cccc(C(=O)OCc2cc(=O)oc3c(C)c(C)ccc23)c1O | inconclusive [activator, partial curve] |
| O=C(Cn1cnc2ccccc21)Nc1ccc2c(c1)OCCCO2 | inactive |
| c1ccc(-c2csc(Nc3ccccn3)n2)cc1 | active: 1.26 µM |
| Cc1ccc(OCCN2C(=O)C(=O)c3cccc(C)c32)cc1 | inactive |
| COc1ccc(NC(=O)Nc2ccc(N3CCOCC3)c3nonc23)c(OC)c1 | inactive |
| Cc1ccccc1N=CC1=C(O)c2ccccc2C1=O | active: 0.251 µM |
| Nc1ccc2nc(N3CCOCC3)sc2c1 | active: 2 µM |
| O=C(O)c1cc(-c2ccc(/C=C3\NC(=O)N(c4ccc(Cl)cc4)C3=O)o2)ccc1Cl | inactive |
| CCC(=O)Nc1cccc(-c2nnc(-c3cccc(NC(=O)CC)c3)o2)c1 | inactive |
| COc1cccc2cc(C(=O)NCc3ccccn3)c(=O)oc12 | inconclusive [activator, single point] |
| S=C(NCc1ccccn1)Nc1cccc(Cl)c1 | inconclusive [activator, single point] |
| COc1ccc(Br)cc1CNC(=O)CN1C(=O)C(c2ccccc2)Oc2cccnc21 (stereo not drawn) | inactive |
| CCOc1ccc(/C=N/NC(=O)c2[nH]c3ccc(C)cc3c2C)cc1 | inactive |
| COc1ccc(NC(=O)c2coc(C)c2)cc1 | inconclusive [activator, partial curve] |
| O=C(CSc1cccc[n+]1[O-])c1ccc(-c2ccccc2)cc1 | inconclusive [activator, partial curve] |
| O=C(Nc1ccc(Cl)cc1)c1cc2nc(-c3ccco3)cc(C(F)(F)F)n2n1 | inconclusive [activator, single point] |
| CCc1ccc(NC(=O)CCc2c(C)nn(-c3ccc(N4CCCCC4)nn3)c2C)cc1 | inconclusive [activator, partial curve] |
| O=C1NC(c2ccccn2)Nc2sc3c(c21)CCC3 (stereo not drawn) | inconclusive [activator, single point] |
| Cc1nc(-c2ccccc2)sc1-c1nnc(C2CC2)o1 | inconclusive [activator, partial curve] |
| Cc1ccc(-c2cc3ccccc3nc2N)cc1 | inconclusive [activator, partial curve] |
| O=C(CCc1nnc(C2(c3ccc(Cl)cc3)CCC2)o1)N1CCCC1 | inconclusive [activator, partial curve] |
| COc1ccc(NC(=O)Cc2c(C)n(C(=O)c3ccc(Cl)cc3)c3ccc(OC)cc23)cc1 | inactive |
| C/C(=N\NC(=O)Cc1csc(N2CCOCC2)n1)c1ccccc1 | inactive |
| COc1ccc(/C=N\NC(=O)c2sc(N)nc2C)cc1OC | inactive |
| O=C(NCCc1c[nH]c2ccccc12)c1cc2ccccc2oc1=O | active: 3.98 µM |
| Nc1cccc(-c2cnc3ccccc3n2)c1 | inconclusive [activator, single point] |

| Structure (SMILES) | Potency |
| --- | --- |
| O=C(NCc1ccc(-c2nc3ccccc3s2)cc1)c1ccco1 | inconclusive [activator, single point] |
| CC(=O)c1ccccc1NC(=O)CCCNC(=O)c1ccc(Cl)cc1 | inactive |
| COC(=O)c1ccc(C(=O)NC(=S)Nc2nc3c(s2)CCCC3)cc1 | inconclusive [activator, partial curve] |
| O=[N+]([O-])c1cccc(-c2cnc3ccccc3n2)c1 | inconclusive [activator, single point] |
| O=C(Nc1nnc(-c2ccco2)s1)c1ccccc1 | active: 0.398 µM |
| COc1ccc(C2=NN(c3ccccc3)C(c3ccc(OC)c(OC)c3)C2)cc1 (stereo not drawn) | inconclusive [activator, partial curve] |
| CC(=O)N(C)c1nc(-c2ccc(Cl)cc2)cs1 | active: 3.55 µM |
| O=S(=O)(Nc1ccc(-c2nc3cccnc3s2)cc1)c1ccccc1F | inconclusive [activator, single point] |
| COc1ccc(/C=C\C(=O)Oc2cccc(/C=N/NC(=O)Cc3ccc(OC)c(OC)c3)c2)cc1 | inconclusive [activator, partial curve] |
| O=C(N/N=C/c1ccc2c(c1)OCO2)C1CC1 | inconclusive [activator, partial curve] |
| CC(=O)c1sc(NC(=O)c2cc(S(=O)(=O)N3CCOCC3)ccc2F)nc1C | inactive |
| CC1=CC(C)(C)N2C(=O)C3(C(C#N)=C(N)OC4=C3C(=O)CC(C)(C)C4)c3cccc1c32 (stereo not drawn) | inactive |
| O=C(c1ccccc1)c1ccc2cc(O)ccc2c1 | inconclusive [activator, single point] |
| CN(C)c1ccc(C2Nc3cccc4cccc(c34)N2)cc1 | inconclusive [activator, single point] |
| N#C/C(=C\c1ccc(OCc2ccccc2)cc1)C(N)=O | inconclusive [activator, single point] |
| O=C(NCCC1=CCCCC1)c1c(O)nc2ccccn2c1=O | inconclusive [activator, single point] |
| O=C1CN(C(=O)COC(=O)c2ccc[n+]([O-])c2)c2ccccc2N1 | inactive |
| C=CCN(CC=C)C(=O)c1ccc(OC2CCN(C(C)=O)CC2)c(OC)c1 | inactive |
| CCNC(=O)CSc1nnc(-c2cccc(S(=O)(=O)N3CCOCC3)c2)o1 | inactive |
| CN(C)/C=C/C(=C\C(=O)C(F)(F)F)Nc1ccc(C(F)(F)F)cc1 | inactive |
| Cc1ccc(NC(=O)C2C3/C=C\CCCCC32)cc1C (stereo not drawn) | inconclusive [activator, single point] |
| COc1ccc(/C=C\c2onc(C)c2S(=O)(=O)N2CCC(C(=O)NCCC(C)C)CC2)cc1 | active: 6.31 µM |
| COc1ccc(N2C(=O)CSC2c2ccccc2[N+](=O)[O-])cc1 (stereo not drawn) | inactive |
| CNS(=O)(=O)c1cccc(C(=O)OCC(=O)Nc2ccc(-c3nc4ccc(C)cc4s3)cc2)c1 | inconclusive [activator, partial curve] |
| O=C1N=C(c2ccccc2)S/C1=C\c1cccs1 | inactive |
| CC(C)c1cc(C(=O)N/N=C/c2ccoc2)cs1 | inconclusive [activator, single point] |
